# Paper PMC12820563
# This is one part of the list. The list includes weakly bound sequences.
# Target: T1, MBP-FoxP3dN (UniProt Q99JB6)
# T1 sequence: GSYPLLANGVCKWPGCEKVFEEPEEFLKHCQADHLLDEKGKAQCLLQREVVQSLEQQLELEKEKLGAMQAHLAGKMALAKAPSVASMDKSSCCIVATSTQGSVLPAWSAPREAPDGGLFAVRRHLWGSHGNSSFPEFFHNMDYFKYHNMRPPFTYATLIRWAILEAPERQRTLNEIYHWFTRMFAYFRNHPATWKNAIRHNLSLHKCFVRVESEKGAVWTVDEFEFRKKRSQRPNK
# Test: PD-seq (MBP pull-down with sequencing)
# Conditions: 20 mM Tris-HCl pH 7.5, 100 mM NaCl, 1.5 mM MgCl2, 0.4 uM protein, 0.1 uM dsDNA library, 30 min, room temperature, amylose pull-down; high values mean tight binding; double strand, one strand shown
row,Sequence,binding signal (RPM ratio (pull-down/input))
1,GATGATTGTTCTCCCAGCTGATGAATTGCTTAAATCGAGTAAACAAATTTTCCTAATCTTTCTGTTCAAGCGCCATCTAC,0.457
2,GATGATTGTTCTCCCAGCTGATGAATTACCTAACTCGAGTAAACAAATTTTCCTAATCTTTCTGTTCAAGCGCCATCTAC,0.325
3,GATGATTGTTCTCCCAGCTGATGAATTCGCGGGCTCGAGTAAACAAATTTTCCTAATCTTTCTGTTCAAGCGCCATCTAC,0.294
4,GATGATTGTTCTCCCAGCTGATGAATTGTTTGCTTCGAGTAAACAAATTTTCCTAATCTTTCTGTTCAAGCGCCATCTAC,6.19
5,GATGATTGTTCTCCCAGCTGATGAATTGCTATCTTCGAGTAAACAAATTTTCCTAATCTTTCTGTTCAAGCGCCATCTAC,0.906
6,GATGATTGTTCTCCCAGCTGATGAATTAGTGCCGTCGAGTAAACAAATTTTCCTAATCTTTCTGTTCAAGCGCCATCTAC,0.933
7,GATGATTGTTCTCCCAGCTGATGAATTATAGTACTCGAGTAAACAAATTTTCCTAATCTTTCTGTTCAAGCGCCATCTAC,0.657
8,GATGATTGTTCTCCCAGCTGATGAATTTCGAGGGTCGAGTAAACAAATTTTCCTAATCTTTCTGTTCAAGCGCCATCTAC,0.322
9,GATGATTGTTCTCCCAGCTGATGAATTGCATAAATCGAGTAAACAAATTTTCCTAATCTTTCTGTTCAAGCGCCATCTAC,0.672
10,GATGATTGTTCTCCCAGCTGATGAATTTGCGTGCTCGAGTAAACAAATTTTCCTAATCTTTCTGTTCAAGCGCCATCTAC,3.24
11,GATGATTGTTCTCCCAGCTGATGAATTCACAATATCGAGTAAACAAATTTTCCTAATCTTTCTGTTCAAGCGCCATCTAC,0.837
12,GATGATTGTTCTCCCAGCTGATGAATTGTTAACCTCGAGTAAACAAATTTTCCTAATCTTTCTGTTCAAGCGCCATCTAC,0.487
13,GATGATTGTTCTCCCAGCTGATGAATTATCTTACTCGAGTAAACAAATTTTCCTAATCTTTCTGTTCAAGCGCCATCTAC,0.32
14,GATGATTGTTCTCCCAGCTGATGAATTACGCTCCTCGAGTAAACAAATTTTCCTAATCTTTCTGTTCAAGCGCCATCTAC,0.968
15,GATGATTGTTCTCCCAGCTGATGAATTTTTCGATTCGAGTAAACAAATTTTCCTAATCTTTCTGTTCAAGCGCCATCTAC,0.26
16,GATGATTGTTCTCCCAGCTGATGAATTCCACGAATCGAGTAAACAAATTTTCCTAATCTTTCTGTTCAAGCGCCATCTAC,0.229
17,GATGATTGTTCTCCCAGCTGATGAATTCGCAACGTCGAGTAAACAAATTTTCCTAATCTTTCTGTTCAAGCGCCATCTAC,1.39
18,GATGATTGTTCTCCCAGCTGATGAATTCCTAACATCGAGTAAACAAATTTTCCTAATCTTTCTGTTCAAGCGCCATCTAC,0.48
19,GATGATTGTTCTCCCAGCTGATGAATTTATTCTCTCGAGTAAACAAATTTTCCTAATCTTTCTGTTCAAGCGCCATCTAC,0.556
20,GATGATTGTTCTCCCAGCTGATGAATTGAAAGTATCGAGTAAACAAATTTTCCTAATCTTTCTGTTCAAGCGCCATCTAC,0.38
21,GATGATTGTTCTCCCAGCTGATGAATTACGTGCATCGAGTAAACAAATTTTCCTAATCTTTCTGTTCAAGCGCCATCTAC,1.6

row,Sequence,binding signal (RPM ratio (pull-down/input))
1,GATGATTGTTCTCCCAGCTGATGAATTGGCTCGTTCGAGTAAACAAATTTTCCTAATCTTTCTGTTCAAGCGCCATCTAC,0.299
2,GATGATTGTTCTCCCAGCTGATGAATTGTTCTCGTCGAGTAAACAAATTTTCCTAATCTTTCTGTTCAAGCGCCATCTAC,0.355
3,GATGATTGTTCTCCCAGCTGATGAATTTTGGACCTCGAGTAAACAAATTTTCCTAATCTTTCTGTTCAAGCGCCATCTAC,0.321
4,GATGATTGTTCTCCCAGCTGATGAATTTCGAGACTCGAGTAAACAAATTTTCCTAATCTTTCTGTTCAAGCGCCATCTAC,0.481
5,GATGATTGTTCTCCCAGCTGATGAATTTGACCTATCGAGTAAACAAATTTTCCTAATCTTTCTGTTCAAGCGCCATCTAC,0.477
6,GATGATTGTTCTCCCAGCTGATGAATTGTCGTTTTCGAGTAAACAAATTTTCCTAATCTTTCTGTTCAAGCGCCATCTAC,1.22
7,GATGATTGTTCTCCCAGCTGATGAATTTTGTACTTCGAGTAAACAAATTTTCCTAATCTTTCTGTTCAAGCGCCATCTAC,1.27
8,GATGATTGTTCTCCCAGCTGATGAATTTCATCGTTCGAGTAAACAAATTTTCCTAATCTTTCTGTTCAAGCGCCATCTAC,0.624
9,GATGATTGTTCTCCCAGCTGATGAATTCAAGGCGTCGAGTAAACAAATTTTCCTAATCTTTCTGTTCAAGCGCCATCTAC,0.468
10,GATGATTGTTCTCCCAGCTGATGAATTCGGTAGATCGAGTAAACAAATTTTCCTAATCTTTCTGTTCAAGCGCCATCTAC,0.394
11,GATGATTGTTCTCCCAGCTGATGAATTGTGTGGCTCGAGTAAACAAATTTTCCTAATCTTTCTGTTCAAGCGCCATCTAC,1.97
12,GATGATTGTTCTCCCAGCTGATGAATTCGGGGTTTCGAGTAAACAAATTTTCCTAATCTTTCTGTTCAAGCGCCATCTAC,0.644
13,GATGATTGTTCTCCCAGCTGATGAATTAGCTCCGTCGAGTAAACAAATTTTCCTAATCTTTCTGTTCAAGCGCCATCTAC,0.254
14,GATGATTGTTCTCCCAGCTGATGAATTGATACGTTCGAGTAAACAAATTTTCCTAATCTTTCTGTTCAAGCGCCATCTAC,0.958
15,GATGATTGTTCTCCCAGCTGATGAATTACCATATTCGAGTAAACAAATTTTCCTAATCTTTCTGTTCAAGCGCCATCTAC,0.453
16,GATGATTGTTCTCCCAGCTGATGAATTTCTAACATCGAGTAAACAAATTTTCCTAATCTTTCTGTTCAAGCGCCATCTAC,0.367
17,GATGATTGTTCTCCCAGCTGATGAATTCCAGAAATCGAGTAAACAAATTTTCCTAATCTTTCTGTTCAAGCGCCATCTAC,0.207
18,GATGATTGTTCTCCCAGCTGATGAATTTGATGAATCGAGTAAACAAATTTTCCTAATCTTTCTGTTCAAGCGCCATCTAC,0.382
19,GATGATTGTTCTCCCAGCTGATGAATTTACCCCCTCGAGTAAACAAATTTTCCTAATCTTTCTGTTCAAGCGCCATCTAC,0.443
20,GATGATTGTTCTCCCAGCTGATGAATTAGCGTTGTCGAGTAAACAAATTTTCCTAATCTTTCTGTTCAAGCGCCATCTAC,1.33
21,GATGATTGTTCTCCCAGCTGATGAATTTAGACCTTCGAGTAAACAAATTTTCCTAATCTTTCTGTTCAAGCGCCATCTAC,0.456

row,Sequence,binding signal (RPM ratio (pull-down/input))
1,GATGATTGTTCTCCCAGCTGATGAATTGTGCCATTCGAGTAAACAAATTTTCCTAATCTTTCTGTTCAAGCGCCATCTAC,6.37
2,GATGATTGTTCTCCCAGCTGATGAATTTAAGAACTCGAGTAAACAAATTTTCCTAATCTTTCTGTTCAAGCGCCATCTAC,0.199
3,GATGATTGTTCTCCCAGCTGATGAATTAGCTAATTCGAGTAAACAAATTTTCCTAATCTTTCTGTTCAAGCGCCATCTAC,0.301
4,GATGATTGTTCTCCCAGCTGATGAATTCTCAAAATCGAGTAAACAAATTTTCCTAATCTTTCTGTTCAAGCGCCATCTAC,0.201
5,GATGATTGTTCTCCCAGCTGATGAATTACAATCGTCGAGTAAACAAATTTTCCTAATCTTTCTGTTCAAGCGCCATCTAC,0.704
6,GATGATTGTTCTCCCAGCTGATGAATTTGCCGTATCGAGTAAACAAATTTTCCTAATCTTTCTGTTCAAGCGCCATCTAC,1.13
7,GATGATTGTTCTCCCAGCTGATGAATTCGGCGCGTCGAGTAAACAAATTTTCCTAATCTTTCTGTTCAAGCGCCATCTAC,1.43
8,GATGATTGTTCTCCCAGCTGATGAATTCTGCTGGTCGAGTAAACAAATTTTCCTAATCTTTCTGTTCAAGCGCCATCTAC,1.19
9,GATGATTGTTCTCCCAGCTGATGAATTAGTGGGTTCGAGTAAACAAATTTTCCTAATCTTTCTGTTCAAGCGCCATCTAC,1.17
10,GATGATTGTTCTCCCAGCTGATGAATTGACTGCATCGAGTAAACAAATTTTCCTAATCTTTCTGTTCAAGCGCCATCTAC,0.987
11,GATGATTGTTCTCCCAGCTGATGAATTGTTTTAATCGAGTAAACAAATTTTCCTAATCTTTCTGTTCAAGCGCCATCTAC,0.888
12,GATGATTGTTCTCCCAGCTGATGAATTGTCGTGGTCGAGTAAACAAATTTTCCTAATCTTTCTGTTCAAGCGCCATCTAC,0.521
13,GATGATTGTTCTCCCAGCTGATGAATTGTTGATGTCGAGTAAACAAATTTTCCTAATCTTTCTGTTCAAGCGCCATCTAC,3.59
14,GATGATTGTTCTCCCAGCTGATGAATTGGGGTCGTCGAGTAAACAAATTTTCCTAATCTTTCTGTTCAAGCGCCATCTAC,0.545
15,GATGATTGTTCTCCCAGCTGATGAATTGTTAAATTCGAGTAAACAAATTTTCCTAATCTTTCTGTTCAAGCGCCATCTAC,0.358
16,GATGATTGTTCTCCCAGCTGATGAATTATAGTTATCGAGTAAACAAATTTTCCTAATCTTTCTGTTCAAGCGCCATCTAC,1.12
17,GATGATTGTTCTCCCAGCTGATGAATTGCGCTCCTCGAGTAAACAAATTTTCCTAATCTTTCTGTTCAAGCGCCATCTAC,1.51
18,GATGATTGTTCTCCCAGCTGATGAATTCTAGAGCTCGAGTAAACAAATTTTCCTAATCTTTCTGTTCAAGCGCCATCTAC,0.202
19,GATGATTGTTCTCCCAGCTGATGAATTACGCAGCTCGAGTAAACAAATTTTCCTAATCTTTCTGTTCAAGCGCCATCTAC,1.78
20,GATGATTGTTCTCCCAGCTGATGAATTGGAGTATTCGAGTAAACAAATTTTCCTAATCTTTCTGTTCAAGCGCCATCTAC,1.02
21,GATGATTGTTCTCCCAGCTGATGAATTTACTGTTTCGAGTAAACAAATTTTCCTAATCTTTCTGTTCAAGCGCCATCTAC,1.64
